Where a chain is given by its changes, count along the chain named. No constants are given. Whether binding was seen depends on the method and setting. In cells and extracts the contact can be indirect. Some entries that bind do so weakly or less than the wild type. For some assays here: Sequences can lack the tags named with a protein.

Assay [1] addresses T1, 3xFLAG-ATF7IP K16R mutant (stably expressed in Atf7ip KO mESCs) (mouse) (UniProt Q7TT18).
T1 sequence: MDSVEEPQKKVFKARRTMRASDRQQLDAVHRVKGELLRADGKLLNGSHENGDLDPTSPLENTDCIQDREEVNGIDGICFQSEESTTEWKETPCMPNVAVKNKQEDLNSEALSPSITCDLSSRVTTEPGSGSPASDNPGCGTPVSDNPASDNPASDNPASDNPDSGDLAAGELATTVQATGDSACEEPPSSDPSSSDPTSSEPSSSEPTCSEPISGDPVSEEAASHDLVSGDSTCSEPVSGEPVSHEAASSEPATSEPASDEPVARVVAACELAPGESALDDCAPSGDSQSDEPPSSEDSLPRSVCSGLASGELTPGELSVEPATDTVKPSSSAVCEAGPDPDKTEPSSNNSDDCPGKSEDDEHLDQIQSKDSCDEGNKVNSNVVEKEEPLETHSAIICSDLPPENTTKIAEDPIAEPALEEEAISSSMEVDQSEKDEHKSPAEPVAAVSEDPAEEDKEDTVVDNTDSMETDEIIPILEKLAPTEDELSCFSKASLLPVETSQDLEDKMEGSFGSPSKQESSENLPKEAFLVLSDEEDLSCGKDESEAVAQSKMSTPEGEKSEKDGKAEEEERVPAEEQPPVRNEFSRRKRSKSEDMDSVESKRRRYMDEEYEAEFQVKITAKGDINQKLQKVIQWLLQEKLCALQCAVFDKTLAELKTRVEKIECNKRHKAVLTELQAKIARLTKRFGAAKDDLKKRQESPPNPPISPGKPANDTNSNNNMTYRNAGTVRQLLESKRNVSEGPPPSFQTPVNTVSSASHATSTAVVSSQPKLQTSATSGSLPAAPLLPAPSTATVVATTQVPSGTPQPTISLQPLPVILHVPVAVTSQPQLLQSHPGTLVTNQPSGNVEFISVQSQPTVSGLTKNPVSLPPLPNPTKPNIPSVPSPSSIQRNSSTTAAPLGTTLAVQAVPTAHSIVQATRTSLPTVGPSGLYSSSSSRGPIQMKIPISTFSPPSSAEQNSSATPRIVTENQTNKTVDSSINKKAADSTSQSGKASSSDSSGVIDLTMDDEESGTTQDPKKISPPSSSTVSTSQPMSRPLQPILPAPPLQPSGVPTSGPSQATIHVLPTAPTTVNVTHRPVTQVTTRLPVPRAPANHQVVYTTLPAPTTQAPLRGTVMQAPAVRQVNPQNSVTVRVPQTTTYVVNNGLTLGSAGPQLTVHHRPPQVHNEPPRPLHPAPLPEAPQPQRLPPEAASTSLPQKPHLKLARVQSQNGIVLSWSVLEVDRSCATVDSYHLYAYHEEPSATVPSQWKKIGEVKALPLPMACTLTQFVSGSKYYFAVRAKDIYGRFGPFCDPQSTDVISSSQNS
The assay is described as follows: co-IP; Atf7ip KO mESCs rescued with 3xFLAG-ATF7IP WT, K16R or Δ(1–16); anti-FLAG M2 beads; endogenous partners detected by western blot.

Assay [2] deals with T2, ATF7IP, endogenous in WT mESCs (mouse (endogenous in mESCs)) (UniProt Q7TT18).
T2 sequence (chain, tri-methylated lysine at K16 (shown on 3xFLAG-ATF7IP in WT mESCs, ~ 92%)): T1 sequence with R16K
The assay is described as follows: co-IP; chromatin fraction of WT or Atf7ip KO mESCs, sonicated in normal-lysis buffer; anti-ATF7IP antibody, Protein A and Protein G Dynabeads; western blot.

B1: M-phase phosphoprotein 8 (MPP8), endogenous in mESCs (protein, UniProt Q3TYA6 1-858)
chain: MAAAAEEGMSAAALVMSVPDSIGRSPESEGVGAGDEEKDAATKGTVAVGDSEEDGEDVFEVERILDMKCEGGKNLYKVRWKGYTSEDDTWEPEVHLEDCKEVLLEFRKKLAENKAKAVRKDIQRLSLNNDIFEADSDSDQQSDTKEDISPRKKKKKIKCKEETSPEDLRKKRTKMGKLKDKFKTELESTSEIIGFDVKTKKRIWEVKEELKDSKKPKKDEIKETKELKKANKRAEVRDLKIKIREDVKENRKTKKERYIESPLESESPNDSLILEDDSEDFISDNREENQNVRSVRDKTAQETVQEGIFEKHLDDLISIEEDAGTRVRRKKTKPRKFEEPKEIKKLESTNAFLERRAIPKKQRNQDKGISNLELNKLPSPVFAQTLKSSRLSGEEKSLKSPDLAEEEKEKKNEPKGKYQKRYDLDKEEKARKEPKVLKSFKEIRNAFDLFKKTTEEKNDVLENNSKREEISLDSKIMNDNKTKDKCSLKEKRNTRDETDTWAYIAAEGDQEVSDSVCQTDETSDGRQPVLSLGMDLQLEWMKLEDFQKHLDGEDEPFITTNRIPNNLLRDAVKNGDYIAVKVALNSNEEYNLDQEDSTGMTLVMLAAAGGQDDLLRLLITKGAKVNGRQKNGTTALIHAAEKNFLTTVAILLEAGAFVNVQQSNGETALMKACKRGNSDIVRLVIECGADCNILSKHQNSALYFAKQCNNVLVYELLKSHLETLSRVAEETIRDYFESRLALLEPVFPIACHRLCEGPDFSTDFNYMPPQNMPEGSGVLLFIFHANFLGKDVIARLCGPCSVQAVVLNDKFQLPVFLDSHFVYSFSPVAGPNKLFIRLTEAPFAKVKLLIGAYRVQLQ
On to B1, for which the binding result is given as “no binding” in assay [1] and “binds” in assay [2].

The record behind these values is article PMC6172828.
